Assay results from the RNAGym collection of RNA variant scans (doi:10.1093/nar/gkz1192).
The source gives no read counts; variants with many changes may rest on few reads.

B1: CPEB3 Ribozyme (parent)
chain: UAACAGGGGGCCACAGCAGAAGCGUUCACGUCGCAGCCCCUGUCAGAUUCUGGUGAAUCUGCGAAUUCUGCUGUAUAUCUC

Variants of: B1
Experiment: self-cleavage, relative activity (ratio to wild type); higher = more cleavage; in vitro, sequencing
In short: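 After error-prone PCR and barcoding, CPEB3 ribozyme mutant libraries were transcribed with T7 RNA polymerase at 37°C for 5 hours, then given 15 min with DNase I before an EDTA stop, and they cleaved during both steps. Reverse transcription with template switching preceded Illumina sequencing. Relative activity divides a variant's cleaved/total read fraction by the unmutated ribozyme's. At least 5 reads were required per variant, and three batches were averaged.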

Variant | self-cleavage
UAACAGGGGGCCACAGCAGAAGCGUUCACGUCGCAGCCCCAGUCAGAUUCUGGUGAAUCUGCGGAUUCUGCCGUAUAUCCC | 0.09
UAACAGGGGGCCACAGCAGAAGCGUUCACGUCGCAGCCCCAGUCAGAUUCUGGUGAAUCUGCGUAUUCUGCAGUAUAUCUC | 0.08
UAACAGGGGGCCACAGCAGAAGCGUUCACGUCGCAGCCCCAGUCAGAUUCUGGUGAAUCUGCGUAUUCUGCUGUACAUCUC | 0.14
UAACAGGGGGCCACAGCAGAAGCGUUCACGUCGCAGCCCCAGUCAGAUUCUGGUGAAUCUGCGAGUCCUGCUGUAUAUCUC | 0.3
UAACAGGGGGCCACAGCAGAAGCGUUCACGUCGCAGCCCCAGUAGGAUUCUGGUGAAUCUGCGAGUUCCGCUAUAUAUCUC | 0.07
UAACAGGGGGCCACAGCAGAAGCGUUCACGUCGCAGCCCCAGUUAGAUUCUGGUGAAUCUGCGAAUUCUGCAGUAUAUCUC | 0.23
UAACAGGGGGCCACAGCAGAAGCGUUCACGUCGCAGCCCCAGUCAGAUUGUGGUGAAUCUGCGAAUACUGCUGUAUAUCCC | 0.2
UAACAGGGGGCCACAGCAGAAGCGUUCACGUCGCAGCCCCAGUCAGAUUCUGGUGAAUCUGGGAAUUCUGCUGUAUAACUC | 0.06
UAACAGGGGGCCACAGCAGAAGCGUUCACGUCGCAGCCCCAGUCAGAUUCUGGUGAAUCUGCGAAUUAUGCUGUCUAUCUC | 0.08
UAACAGGGGGCCACAGCAGAAGCGUUCACGUCGCAGCCCCAGUCAGAUUCUGGUGAAUCUGCGAAUUAUGCUGUAUAUCUU | 0.15
UAACAGGGGGCCACAGCAGAAGCGUUCACGUCGCAGCCCCAUCCAGAUUCUGGUGAAUCUGCGAAUUCUGCCGUAUAUCUC | 0.07
UAACAGGGGGCCACAGCAGAAGCGUUCACGUCGCAGCCCCAGUCAUAUUCUGGUGAAUCUGUGAAUUCUGCCGUAUAUCUC | 0.14
UAACAGGGGGCCACAGCAGAAGCGUUCACGUCGCAGCCCCAGUCAGAUUCUAGUGAAUCUGCGAAUUCUGCUAUAUAUCUC | 0.4
UAACAGGGGGCCACAGCAGAAGCGUUCACGUCGCAGCCCCAGUCAGAUUCUGAUGAAUCAGCGAAUUCUGCUGUAUAUCUC | 0.15
UAACAGGGGGCCACAGCAGAAGCGUUCACGUCGCAGCCCCAGUCAGAUUCUGUUGAAUCUGCGAAUUCUGCCGUAUAUCUC | 0.12
UAACAGGGGGCCACAGCAGAAGCGUUCACGUCGCAGCCCCAGUCAGAUUCUGGUUAAUCUGCGGAUUCUGCUGUAUAUCUC | 0.18
UAACAGGGGGCCACAGCAGAAGCGUUCACGUCGCAGCCCCAGUCAGAUUCUGGUGAAUCUACGAAUUCUGCUGUAUAUCCC | 0.23

Variant | self-cleavage
UAACAGGGGGCCACAGCAGAAGCGUUCACGUCGCAGCCCCAGUCAGAUUCUGGUGAAUCUCCGAAUUCUCCUGUAUAUCUC | 0.15
UAACAGGGGGCCACAGCAGAAGCGUUCACGUCGCAGCCCCAGUCAGAUUCUGGUGAAUCUGCGAAUUCUGCUUUAUAUCCC | 0.39
UAACAGGGGGCCACAGCAGAAGCGUUCACGUCGCAGCCCCAGACAGAUUCUGGUGAGUCUGCGGGUUCUGCCGUAUAUCUC | 0.08
UAACAGGGGGCCACAGCAGAAGCGUUCACGUCGCAGCCCCAGAUAGAUUCUGGAGAAUCUGCGAAUUCUGCUGUAUAUCUC | 0.21
UAACAGGGGGCCACAGCAGAAGCGUUCACGUCGCAGCCCCAGACAGAUUCUGGAGAAUCUGCGAAUUCCGCUGUAUAUCCC | 0.19
UAACAGGGGGCCACAGCAGAAGCGUUCACGUCGCAGCCCCAGACAGAUUCUGGUGAAUCAGCGAAUUCUGUUGUAUAUCUC | 0.12
UAACAGGGGGCCACAGCAGAAGCGUUCACGUCGCAGCCCCAGACAGAUUCUGGUGAAUCUGCGAAUUCUGCCGUAUAUCAC | 0.19
UAACAGGGGGCCACAGCAGAAGCGUUCACGUCGCAGCCCCAGCCAGAUUCUGGUGAAUCUGCGGAUUCUGCUGUAUAUCUC | 0.47
UAACAGGGGGCCACAGCAGAAGCGUUCACGUCGCAGCCCCAGCCAUAUUCUGGUGAAUCUGCGGACUCUGCCGUAUAUCUC | 0.06
UAACAGGGGGCCACAGCAGAAGCGUUCACGUCGCAGCCCCAGCCAGAAUCUGGUGAAUCUGCGAACUCUGCUGUAUACCUC | 0.15
UAACAGGGGGCCACAGCAGAAGCGUUCACGUCGCAGCCCCAGCCAGAUCCUGGUGAAUCUGCGAAUUCUGCUGUAUAUCUC | 0.13
UAACAGGGGGCCACAGCAGAAGCGUUCACGUCGCAGCCCCAGCCAGAUUCCGGCGAAUCUGGGAAUUCUGCUGUAGAUCUC | 0.23
UAACAGGGGGCCACAGCAGAAGCGUUCACGUCGCAGCCCCAGCCAGAUUCUGGAGAAUCUGCGAAUUCUGCUGUAUAUCUC | 0.43
UAACAGGGGGCCACAGCAGAAGCGUUCACGUCGCAGCCCCAGCCAGAUUCUGGUGAAUCAGCGAAUUCCGCUGUAUGUCUC | 0.19
UAACAGGGGGCCACAGCAGAAGCGUUCACGUCGCAGCCCCAGCCAGAUUCUGGUGAAUCUGCGAAUCCUGCUGUAUAUCUC | 0.06
UAACAGGGGGCCACAGCAGAAGCGUUCACGUCGCAGCCCCAGCCAGAUUCUGGUGAAUCUGCGAAUUCUGCUGUAUAUCGC | 0.28
UAACAGGGGGCCACAGCAGAAGCGUUCACGUCGCAGCCCCAGUCAGACUCUGGUGAAUCUGCGAAUUCUGCUGUUUAUCUC | 0.09
